The campaign covered roughly 48,000 compounds. About 450 (0.94%) were called active. Inconclusive results (about 19%) are left out. The call rests on the fitted dose curve; in most records, active means well fitted inhibition curve with a large enough effect; inconclusive means small, poorly fitted or top-dose-only effect; inactive means no such curve, though single readings can be large or run the other way. Some of the results follow.
Experiment: Primary qHTS for Identification of Small Molecule Inhibitors of Huntingtin Promoter Activity; further: nearly all actives have a fitted effect of over 50% in size
Settings: HEK293 HTT promoter firefly luciferase reporter (activity 0% = vehicle and -100% = no light), 24 h; series mostly up to 57.5 µM; activity change, negative = inhibition: at the top concentration
Method in brief: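 Firefly luciferase readout (Dual-Glo, 10 min RT) after 24 h, 37 °C compound exposure (final up to 57.5 uM) of HEK293 reporter cells cultured 24 h beforehand; PTC124 at 50 uM final as control inhibitor; activity scaled vehicle 0%, zero RLU -100%.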

Activity change, negative = inhibition, inactive:
COc1ccc(NC(=O)Cn2c(=O)n(C(C)C)c(=O)c3oc4ccccc4c32)cc1Cl -2.04%
COc1ccc(-c2cc(C(C)=O)c(C)n2CCC(=O)NCc2ccccc2OC)cc1 -29.6%
Cc1nn(-c2ccccc2)c(OC(=O)C(C)C)c1Sc1ccccc1 -6.96%
Brc1cccc(CNCCSc2nnnn2-c2ccccc2)c1 -19.1%
CCc1ccccc1N(C)C(=O)Cc1c(C(=O)O)c(C)cn1C -8.65%
Cc1cc(C)c(NC(=O)C(C)n2nc(-c3ccc(C)c(C)c3)ccc2=O)c(C)c1 (configuration not stated) -5.13%
Cc1cc(C)cc(OCC(=O)NCCc2nc3ccccc3[nH]2)c1 -19.5%
COC(=O)c1cccc(-n2c(CCC(=O)O)ccc2-c2ccc(OC)cc2)c1 -17.9%
Cc1ccc(Cl)cc1NC(=O)C(C)n1nnc2sc(-c3ccccc3)cc2c1=O (configuration not stated) -2.74%
CCOC(=O)c1c(C)oc2ncnc(N3CCN(c4ccccc4OC)CC3)c12 -24.2%
O=C(COc1ccc2oc3c(c2c1)CCCC3)Nc1ccc(Br)cc1 -14.1%
COc1cc(OC)cc(C(=O)Nc2ccccc2-c2nc3ccccc3s2)c1 17.3%
COc1ccc2[nH]c(C)c(CCNS(=O)(=O)c3cc(F)ccc3OC)c2c1 8.69%
COc1ccc(CCNC(=O)C2(c3cccs3)CCOCC2)cc1OC 0.326%
COc1ccc(-c2nc3c4ccccc4n(CC(=O)Nc4cc(F)ccc4F)c(=O)n3n2)cc1 29.3%
CCOc1ccc(OC(=O)c2cn(-c3ccc(C)cc3)c(=O)c3ccccc23)cc1 -17.9%
COc1ccc(-c2cc(C(F)(F)F)n3nc(C(=O)Nc4cc(Cl)cc(Cl)c4)cc3n2)cc1 -14.5% [at 11.5 µM]
CCCCC(=O)Nc1ccccc1C(=O)OCc1cc(=O)n2nc(C3CCCCC3)sc2n1 -33.7%
COc1ccc(N2CCN(S(=O)(=O)CCNC(=O)Cc3ccc(Cl)cc3)CC2)cc1 -13.4%
CCn1cc(S(=O)(=O)c2cc(C)cc(C)c2)c(=O)c2cc(F)c(N3CCCC3)cc21 -14.1%
CCOc1ccc(CCNC(=O)c2nnc(Cc3cc(OC)c(OC)c(OC)c3)o2)cc1OCC -19.7%
Cc1ccccc1Cn1c(=O)n(Cc2ccc(Cl)cc2)c(=O)c2cccnc21 -9.04%
COc1ccc(OC)c(NC(=O)CSC2=Nc3ccccc3C3=NC(CC(=O)NCc4ccc5c(c4)OCO5)C(=O)N23)c1 (configuration not stated) 0%
COc1cc(Cl)c(C)cc1NC(=O)c1sc2nc3n(c(=O)c2c1C)CCCCC3 -1.67%
CCOC(=O)c1c(NC(=O)c2nc(SC(C)C)ncc2Cl)sc2c1CCCC2 -11.4%
Cn1c(SCc2ccc(C(F)(F)F)cc2)nc2c([nH]c3ccccc32)c1=O 0.288%
O=c1cc(N2CCN(c3ccc(F)cc3)CC2)[nH]c(=O)n1-c1ccc(Br)cc1 -10.6%
COc1cc(NC(=O)N2CCC(CN3CCCC3)CC2)cc(OC)c1OC -5.12%
COc1cc(C(=O)NCC(c2cccnc2)N2CCc3ccccc32)cc(OC)c1OC (configuration not stated) -20.2%
CN(C)c1ccc(C(CNS(=O)(=O)c2ccccc2)N2CCc3ccccc32)cc1 (configuration not stated) 20.6%
CC(=O)c1c(C)oc2c(Cl)cc(NS(=O)(=O)c3ccc(Cl)cc3)cc12 -7.43%
CCN(CC)C(=O)Cn1c(=O)n(Cc2ccc(C(=O)NCc3ccccc3Cl)cc2)c(=O)c2ccccc21 -9.95%
CCOC(=O)c1c(-c2ccc(Br)cc2)csc1NC(=O)c1ccccc1F -8.7%
O=C1CN(C(=O)c2ccccc2C(F)(F)F)C(c2ccccc2)c2cc(F)ccc2N1 (configuration not stated) -31.1%
COc1cc2c(cc1OC)C(COc1ccc3c(C)cc(=O)oc3c1)N(C(=O)c1ccc(Cl)cc1)CC2 (configuration not stated) -17.8%
O=C1[C@@H]2CSC(c3ccc(C(F)(F)F)cc3)N2C(=O)N1c1ccccc1 (some centres not stated) -20.9%
CCCNc1c(NC(=O)c2ccc(OCCC)cc2)c(=O)oc2ccccc12 -20.1%
COc1ccc2c(c1OC)C(=O)O[C@@H]2[C@H]1c2c(cc3c(c2OC)OCO3)CCN1C -14.2%
CCCC(=O)N1CCN(c2nc3c(OC)ccc(C)c3s2)CC1 -18.8%
CCOc1ccc(-n2c(SCC(=O)N3CCOCC3)nc3c([nH]c4ccccc43)c2=O)cc1 -18%
CC(C)(C)OC(=O)N1CCC(c2c(C(=O)N3CCN(C(=O)c4ccco4)CC3)cnn2-c2cccc(F)c2)CC1 1.53%
Cc1ccc(C)c(Nc2nnc(-n3nc(C)cc3C)c3ccccc23)c1 -25.5%
O=C(Nc1cccc(F)c1)c1ccc2snnc2c1 8.64%
CCN(c1ccccc1)S(=O)(=O)c1nnc(NC(=O)c2cccs2)s1 -23.9%
Cc1ccc(-n2nc(C(=O)N3CCC(C)CC3)c(=O)n(C)c2=O)cc1 4.88%
Cc1ccc(CNC(=O)C(CC(C)C)NS(=O)(=O)c2ccc3c(c2)oc(=O)n3C)cc1 (configuration not stated) -3.26%
Cc1ccc(Cc2nc3ccccc3nc2SCC(=O)Nc2ccc3c(c2)OCO3)cc1 -26.9%
COc1ccc(CNC(=O)C2CCN(Cc3nc(-c4ccc(Cl)cc4)oc3C)CC2)cc1 -4.43%
Cc1ccc(S(=O)(=O)NCCS(=O)(=O)N2CCN(c3ccccc3)CC2)cc1 -35.4%
Cc1nc(N2CCOCC2)c2c(C(=O)Nc3cccc(C(F)(F)F)c3)c(C)oc2n1 -2.89%
CSc1ccc(CCNC(=O)CCc2c(C)nc3c(c(C)nn3-c3ccccc3)c2C)cc1 19.5%
O=C(NC1CC(=O)N(c2cccc(F)c2)C1)c1ccc(Br)o1 (configuration not stated) 5.43%
CC(=O)c1ccc(NC(=O)CCSc2nc(-c3ccco3)cc(C(F)(F)F)n2)cc1 -6.55% [at 11.5 µM]
COC(=O)c1c(-c2ccc(Cl)cc2)noc1N1CCN(c2ccc(C)cc2C)CC1 -16.4%
CC(C)c1ccc(NC(=O)C2CCCN(S(=O)(=O)c3cccc4cccnc34)C2)cc1 (configuration not stated) -20.6%
COc1ccc(OC)c(NC(=O)c2noc3c2CCCC3)c1 30.3%
CCOC(=O)Cc1ccc(NC(=O)N2CCOc3ccc(C)cc32)cc1 0.0905%
CCOC(=O)c1cc(S(=O)(=O)N2CCN(c3ccccc3)CC2)[nH]n1 -13.6%
CCc1nnc2c3ccccc3nc(Nc3ccc(C(C)=O)cc3)n12 -32.6% [at 11.5 µM]
Cc1ccc(OC(C)C(=O)Nc2nonc2-c2ccc(Br)cc2)cc1C (configuration not stated) -16%
Cc1ccc2nc(N(Cc3cccnc3)C(=O)COc3ccccc3)sc2c1 7.2%
CCOC(=O)Cn1c(=O)oc2cc(S(=O)(=O)N3CCN(c4cccc(C)c4C)CC3)ccc21 -12.2%
Cc1ccc(Nc2c(-c3c[nH]c4ccccc34)nc3cc(C)ccn23)cc1 26.1%
CCOc1ccccc1NC(=O)CSc1nc2c(oc3ccccc32)c(=O)n1-c1ccc(C)c(C)c1 -13.1%
COc1ccc(-c2nn3c(=O)cc(CN4CCN(C(=O)c5ccc(C(C)(C)C)cc5)CC4)nc3s2)cc1 -26.2%
CCOC(=O)c1c(N)n(-c2ccc(C)c(Cl)c2)c2nc3ccccc3nc12 -7.79%
CC1=C(c2ccc(C)c(C)c2)S(=O)(=O)N(Cc2ccc(C(=O)NCc3cccc(C)c3)cc2)C1=O -27.7%
O=C(CCC1N=C2c3ccccc3N=C(SCc3ccc(F)cc3)N2C1=O)NCc1cccs1 (configuration not stated) 0.9%
Cc1cccc(NC(=O)c2oc3ccccc3c2NC(=O)Cc2coc3c(C)c(C)ccc23)c1 -7.91%
CCOC(=O)C1=C(CS(=O)(=O)c2cccc(C(F)(F)F)c2)NC(=O)NC1c1cccc(OC)c1 (configuration not stated) -22.4%
COc1ccc(Cl)cc1C(=O)Nc1sc2c(c1C(=O)OC(C)C)CCCC2 -14% [at 11.5 µM]
O=C(C1CC1)N1CCc2cc(Br)cc(S(=O)(=O)N3CCN(c4cccc(C(F)(F)F)c4)CC3)c21 6.36%
CCCCOc1ccc(-c2nn(-c3ccccc3)cc2C2NC(=O)NC(C)=C2C(=O)OC)cc1 (configuration not stated) -8.52%
CC(=O)N1CCc2cc(Br)cc(S(=O)(=O)N3CCN(c4cccc(C(F)(F)F)c4)CC3)c21 -5.05%
COc1ccccc1NC(=O)C1=C(C)Nc2c(C(=O)Nc3ccc(F)cc3)cnn2C1c1cccc([N+](=O)[O-])c1 (configuration not stated) -10%
CCCCN(C)c1nc2c(S(=O)(=O)c3ccc(CC)cc3)nnn2c2ccc(Cl)cc12 2.67%
COc1ccc(NC(=O)Cn2c(=O)n(-c3ccc(OC)c(OC)c3)c(=O)c3ccccc32)cc1 -18.4%
COc1cc(C(CC(=O)NCc2ccc(F)cc2)N2Cc3ccccc3C2=O)cc(OC)c1OC (configuration not stated) -5.61%
COc1ccc(C(F)(F)F)cc1NC(=O)c1sc2nc(-c3cccs3)ccc2c1N 38.5%
CC(=O)c1ccc(N2CCN(c3ncnc4c3c(-c3ccccc3)cn4-c3cccc(C)c3)CC2)cc1 -21.1%
CCOC(=O)c1ccc(NC(=O)c2c(-c3c(F)cccc3Cl)noc2C)cc1 -25.7%
CCC(=O)N1CCc2cc(Br)cc(S(=O)(=O)N3CCC(C(=O)NCCCOC(C)C)CC3)c21 13.4%
COC(=O)c1ccccc1NC(=O)c1ccc(COc2ccccc2Cl)o1 -9.67%
COc1ccc(C2CC(=O)c3cc(-c4nc(-c5cccc(Cl)c5)cs4)c(=O)[nH]c3C2)cc1OC (configuration not stated) -8.42%
O=C(Cn1cc(C(=O)c2ccco2)c2ccccc21)Nc1ccc(Br)cc1 -4.18%
CSc1ncc2c(n1)-c1ccccc1N(Cc1ccc(Cl)cc1)S2(=O)=O -12%
O=C(CSc1ccccc1)N1CCc2c([nH]c3ccccc23)C1c1ccc(F)cc1 (configuration not stated) -28.8%
COc1cccc(C(=O)Nc2cccc(C(=O)OCc3cc(=O)n4nc(C5CC5)sc4n3)c2)c1 -3.9%
Nc1c(-c2nc(-c3cccs3)no2)nnn1-c1ccc(Cl)cc1 18.8%
CCC1CCCCN1C(=O)Cn1c(=O)n(CCCCCC(=O)NCc2ccccc2)c(=O)c2sccc21 (configuration not stated) -13.9%
CSc1ncc(Cl)c(C(=O)Nc2ccc(NC(C)=O)cc2)n1 -4.39%
CCCCNc1nc(Oc2ccc(OCC)nn2)nc(N2CCOCC2)n1 19.2%
